# The other results are listed elsewhere or left out. These are noisy estimates, calculated here from bound and input reads.
# Biological target: T1, Pho4 (S. cerevisiae) (UniProt P07270)
# T1 sequence: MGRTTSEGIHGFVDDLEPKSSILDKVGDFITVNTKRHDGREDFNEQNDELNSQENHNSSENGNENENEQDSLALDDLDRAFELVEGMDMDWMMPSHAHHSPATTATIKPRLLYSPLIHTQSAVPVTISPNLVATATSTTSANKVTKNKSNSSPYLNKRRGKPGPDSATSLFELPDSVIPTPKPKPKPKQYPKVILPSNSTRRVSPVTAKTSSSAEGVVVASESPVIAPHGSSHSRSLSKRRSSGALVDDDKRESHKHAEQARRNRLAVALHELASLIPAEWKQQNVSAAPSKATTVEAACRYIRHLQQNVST
# Assay: relative binding free energy (BET-seq); higher = weaker binding
# Settings: reference: library average
row,Sequence,relative binding free energy [kcal/mol]
1,CGTTACACGTGTGATT,0.11
2,ATAGTCACGTGATTAA,0.21
3,GCTCTCACGTGTGTTG,0.29
4,GGATACACGTGCGAGT,0.36
5,ATCTTCACGTGTGAGT,0.18
6,TGCGGCACGTGGGTAA,-0.17
7,CGGTGCACGTGGAGAT,0.05
8,TCGGTCACGTGTTTTA,0.06
9,ATAGGCACGTGTGGGT,-0.03
10,AGGTTCACGTGCTGTT,0.21
11,GTGGTCACGTGTCAGG,0.19
12,TCGCTCACGTGGTTTT,0.33
13,GTAGCCACGTGGGTGT,-0.21
14,TATGTCACGTGTTCTG,-0.08
15,GTTATCACGTGGATTC,0.31
16,TGTTCCACGTGGCGTA,-0.02
17,GGGTGCACGTGATTTT,0.25
18,ATTAGCACGTGTCGGT,-0.08
19,GTTTACACGTGCTGGA,0.16
20,ATGTTCACGTGGTGCC,0.07
21,GCGTGCACGTGAAAGG,0.25
22,AATGGCACGTGGCTAG,-0.04
23,TTTAGCACGTGACATG,0.07
24,CCTTTCACGTGGTTTT,0.1
25,TTTGACACGTGATTAA,0.14
26,ATGGTCACGTGTCGCG,0.15

row,Sequence,relative binding free energy [kcal/mol]
1,TCGTTCACGTGGAAGG,0.26
2,CTTGTCACGTGATGAG,0.16
3,GGGCTCACGTGTGGGA,0.25
4,TGGGGCACGTGGAACG,-0.1
5,TTTTGCACGTGCGGGG,0
6,TTTGTCACGTGAATAG,0.29
7,GTGTACACGTGGGGGG,-0.08
8,AGGCTCACGTGTATAG,0.16
9,CGGCGCACGTGGGTAG,-0.2
10,TGTGACACGTGTAGTT,0.24
11,CGTGTCACGTGGTGCA,-0.1
12,TTTTACACGTGTACAG,0.04
13,ATGTACACGTGGGGTA,-0.05
14,AGAGGCACGTGACGTG,0.03
15,GTTAACACGTGAGATT,0.44
16,GGGGTCACGTGTTTCG,0.13
17,CTTAACACGTGTTATT,0.09
18,TTCAACACGTGTGTTT,0.04
19,CGGCACACGTGATGGG,0.17
20,TTTATCACGTGCGGGT,0.22
21,ATTTTCACGTGAAGGG,0.46
22,TTCAGCACGTGTCTGT,-0.04
23,AGGCGCACGTGGAGTG,-0.28
24,GCTCGCACGTGGGTGG,-0.21
25,TTGGCCACGTGTTCTG,-0.07
26,TTTATCACGTGTGTGG,0.16

row,Sequence,relative binding free energy [kcal/mol]
1,ATGCCCACGTGTGGGG,-0.18
2,TAGGCCACGTGTATTG,0.02
3,GCAGACACGTGTTGGT,-0.02
4,TTTTACACGTGTAATT,0.2
5,TGTGGCACGTGAGCCT,0.03
6,AGGGCCACGTGTGCTT,-0.01
7,GTTCGCACGTGAGAGT,0.26
8,AGATGCACGTGTTATG,-0.07
9,TAACGCACGTGTGAGG,0.01
10,TTGCGCACGTGTTTAG,-0.05
11,TATTTCACGTGTAGTC,0.23
12,TAATCCACGTGATGTA,0.34
13,ATGTTCACGTGTTGCA,0.08
14,GGGCTCACGTGGTATA,0.24
15,GTGTTCACGTGAGCAT,0.45
16,AAGGTCACGTGGGTGG,-0.05
17,CGGCGCACGTGGTAGG,-0.21
18,GAGTTCACGTGTATGT,0.29
19,TGGTCCACGTGGGCGC,0
20,TTCTACACGTGGGTGC,0.04
21,ACGGTCACGTGGTGTC,0.05
22,TCAGGCACGTGGTTGC,-0.13
23,TTTTTCACGTGCTTGG,0.25
24,TTGACCACGTGGGATG,-0.15
25,TAAGTCACGTGCTAGG,-0.03
26,ACTGGCACGTGGCGTG,-0.3

row,Sequence,relative binding free energy [kcal/mol]
1,ATGTACACGTGTGGCA,0.02
2,TGGTACACGTGGATGC,-0.02
3,GGGATCACGTGAGGGG,0.32
4,GTTCGCACGTGGTCAT,-0.02
5,TTGATCACGTGCGCGG,-0.08
6,GCTTGCACGTGGGGTA,-0.09
7,TGTGGCACGTGAATAT,0.05
8,AATTACACGTGTGTTG,0.1
9,TGTCTCACGTGTGGCG,0.18
10,GGAGGCACGTGACTGG,-0.11
11,AGGGGCACGTGTAGGT,-0.07
12,ATTAGCACGTGATGTG,0.01
13,TAGTTCACGTGCGCGT,0.09
14,GGTTACACGTGGTAGT,0.23
15,ATTACCACGTGTGGGA,-0.04
16,TGAGTCACGTGTCGGC,0.15
17,ACGGTCACGTGGTAGT,0.11
18,TATATCACGTGGAGTG,0.3
19,TATGGCACGTGGTGGC,-0.03
20,AGCCGCACGTGGTGGT,-0.16
21,TTTTGCACGTGGAACT,0.15
22,GAGGGCACGTGAGGAA,0.12
23,AGTTACACGTGGGCTA,-0.12
24,ATGGACACGTGTTAGG,-0.03
25,GGTACCACGTGGTGGG,-0.1
26,TTTGTCACGTGGCATC,0.07

row,Sequence,relative binding free energy [kcal/mol]
1,TGATACACGTGGTGCG,-0.12
2,TATGACACGTGTGATA,0.08
3,GGCTTCACGTGAGAGT,0.36
4,ATTGTCACGTGTTCAT,0.15
5,TGAGGCACGTGAGTTA,0.05
6,GGTGGCACGTGTAAAA,0.12
7,ATATCCACGTGTGGGG,-0.07
8,TGGGGCACGTGGCCGT,-0.22
9,GGGCGCACGTGCGGGT,-0.17
10,TAGAGCACGTGTGAGT,-0.07
11,GGTAGCACGTGGTCAG,-0.24
12,ACAATCACGTGTGTTT,0.15
13,CGTGGCACGTGCGATT,-0.05
14,ATTGCCACGTGACGGG,0
15,AGTTGCACGTGGAACG,0.07
16,CGTAGCACGTGATGGT,0.03
17,GCAGTCACGTGGGTAT,0.06
18,TTGTACACGTGATAGG,0.19
19,TAATTCACGTGACATG,0.46
20,TTTCTCACGTGGTATT,0.2
21,TCCGTCACGTGTGGTA,0.2
22,CAAGGCACGTGCGGTT,-0.12
23,GAGTACACGTGTTGTC,0.24
24,TTATTCACGTGTAAGT,0.36
25,GCATTCACGTGTTGTT,0.25
26,CGTGGCACGTGCGTTG,-0.19

row,Sequence,relative binding free energy [kcal/mol]
1,TATGACACGTGTACGT,-0.05
2,GCTGTCACGTGGTGAT,0
3,TGTAACACGTGTATTG,-0.05
4,GTCTACACGTGAGTGG,0.41
5,GATATCACGTGGTGTT,0.1
6,AACTGCACGTGTGTTG,-0.02
7,GTTGACACGTGTGGTA,0.09
8,TAATACACGTGGGAGG,-0.03
9,TCCTTCACGTGGTGTG,0.08
10,TTTTACACGTGGGGAT,0.08
11,AGTGGCACGTGGGATT,-0.02
12,GAGGACACGTGGTATT,0.03
13,TTTGTCACGTGATGGT,0.15
14,TTATTCACGTGTTAGG,0.23
15,AGTGTCACGTGAGGGA,0.09
16,GTATACACGTGGTTAT,0.06
17,ATGGGCACGTGATCTT,-0.19
18,GGGGCCACGTGATAGG,0.16
19,AGGAGCACGTGGACTT,0.18
20,GGGTGCACGTGTATCT,-0.04
21,CGTTGCACGTGAGTTG,0.09
22,GGCGTCACGTGGTGGT,0.07
23,GGTGACACGTGGCGTA,-0.18
24,TAGTTCACGTGGTGTT,0.21
25,TGGGGCACGTGGATAA,-0.17
26,ATGACCACGTGGGTTT,-0.22

row,Sequence,relative binding free energy [kcal/mol]
1,TGCTGCACGTGGTGAG,-0.16
2,TTAAACACGTGAGTGA,0.38
3,AGGTACACGTGATTTG,0.14
4,AGGATCACGTGAGGCG,0.18
5,GATTTCACGTGAAGGT,0.49
6,TTTCACACGTGTTTAT,0.14
7,GGTCGCACGTGAAATG,0.34
8,GTTTTCACGTGGGGAA,0.08
9,CAGGGCACGTGTGAGG,0.03
10,AAAAACACGTGTTGGT,0.02
11,TGTATCACGTGGTTGA,0.14
12,TTAACCACGTGGAGGA,0.16
13,TAGCTCACGTGGGCTG,0.14
14,ATTTGCACGTGTGTTC,0.05
15,AGATGCACGTGAGAGT,0.06
16,TTGTACACGTGGTTCT,0.08
17,GTTTGCACGTGGCCGG,-0.04
18,AAGTTCACGTGGGGCC,0.21
19,ATGGTCACGTGGTTTA,0.07
20,CGTATCACGTGGTAGT,0.06
21,TAAAGCACGTGGAGTT,0.01
22,AGTAGCACGTGGTTTA,-0.21
23,TTGTGCACGTGAGTGA,0.18
24,GGTTGCACGTGGGGCC,-0.07
25,GGGTTCACGTGGCTAC,0.4
26,AGTGGCACGTGAGTTA,0.15

row,Sequence,relative binding free energy [kcal/mol]
1,CTGTTCACGTGTATCG,0.17
2,TGTGGCACGTGTGGCA,-0.13
3,GTTATCACGTGGGGAA,0.06
4,GGCACCACGTGGAGGT,0.01
5,GGATTCACGTGACAGG,0.42
6,TATTCCACGTGTATTT,0.11
7,TTTTCCACGTGGTCTG,-0.02
8,GAATTCACGTGGTGCT,0.37
9,TGGATCACGTGTTTAG,0.22
10,AAGAACACGTGTGTGG,-0.01
11,TTGATCACGTGTGTCA,0.03
12,TTATACACGTGGGGCT,-0.04
13,AGTGTCACGTGTAAGC,0.2
14,CGGCGCACGTGGAAGG,-0.01
15,AGAGTCACGTGACGGG,0.29
16,CGTTTCACGTGTAAGG,0.29
17,CAAGTCACGTGTTTTA,0.26
18,TCCTACACGTGGGGGG,0.05
19,AGGGTCACGTGGGAGT,-0.1
20,GTCATCACGTGATTGT,0.31
21,ATGGCCACGTGTCGGT,0.01
22,ATGCTCACGTGTTGGG,0.25
23,TTATACACGTGGGTGT,-0.08
24,CGGAACACGTGTGTTT,0
25,GTGGCCACGTGGAGTA,-0.11
26,TGGTACACGTGTCTGT,0.09

row,Sequence,relative binding free energy [kcal/mol]
1,TAGATCACGTGGTAAG,0.13
2,AAATTCACGTGTACTG,0.39
3,TTGCGCACGTGGGAAG,-0.23
4,CAGGGCACGTGATGCG,0.09
5,GAGTGCACGTGCATGT,0
6,GAGATCACGTGGGTTA,0.14
7,TGGTTCACGTGAGAGC,0.38
8,GTGGGCACGTGAACGC,0.22
9,CCTTGCACGTGGGAGG,-0.24
10,GGACTCACGTGTTATG,0.2
11,GCGTACACGTGGTATT,0.14
12,TTACTCACGTGAGGTA,0.35
13,TGCGCCACGTGTTGGG,-0.11
14,GAGGTCACGTGGGACG,0.05
15,GATTTCACGTGTTGCT,0.25
16,CTGGTCACGTGTGGTA,0.13
17,GTGGCCACGTGTTAGA,-0.06
18,ATTGGCACGTGACGTA,-0.02
19,TATTGCACGTGAAGGG,0.34
20,GTAGCCACGTGTTTGA,0.09
21,GGGCGCACGTGTTCTG,-0.1
22,GATTGCACGTGGTTAG,0.02

# — the BET-seq Pho4 binding data (Le et al. 2018)
